# Assay results published in patent US20070003565A1 (priority 2003, published 2007).
# Residues, ends and D or L forms follow the SMILES beside them.
# System: 293 cells
# Conditions: 6 days, CPE, mean of triplicate experiments
# Experimental: The 293 human embryonic kidney cell line (from the Cell Bank of the Chinese Academy of Sciences) was seeded on a 96-well plate with a concentration of 400,000/ml and incubated at 37° C., under 5% CO2 for 24 hours. The test drugs were then added. […] The positive control drug ganciclovir was in a serial dilution of 6000 μg/ml to 11.7 μg/ml. Cells at each concentration were seeded in 3 wells, 100 μl per well, and normal cells were setup as controls. Cells were incubated at 37° C. and under 5% CO2 for 6 days. A cytopathic effect (CPE) was observed under an inverted microscope everyday. Morphological: change of cells under 25% was defined “+”, 26%-50% was defined “++”, 51%-75% was defined “+++”, and 76%-100% was defined “++++”. Toxic dose 50 (TD50) and toxic dose 0 (TD0) of the drugs were calculated by the Reed-Muench method.
# The above-mentioned drugs and positive control ganciclovir were applied to the 293 cell cultures. The toxic dose 0 (TD0) and toxic dose 50 (TD50) were calculated using the CPE method. The results listed below were means of triplicate experiments: […]
SMILES,toxic dose 0 (TD0),toxic dose 50 (TD50)
CC[C@H](C)[C@H](NC(=O)[C@@H](NC(=O)[C@@H]1CCCN1C(=O)[C@H](CC(=O)O)NC(=O)[C@H](Cc1c[nH]cn1)NC(=O)[C@@H](NC(=O)[C@@H](N)CCSC)[C@@H](C)O)C(C)C)C(=O)N[C@@H](CO)C(=O)N[C@@H](CC(C)C)C(=O)N1CCC[C@H]1C(=O)N[C@H](C(=O)N[C@H](C(=O)O)[C@@H](C)O)[C@@H](C)O [HAb18G-AP-1] (H-MTHDPVISLPTT-OH),"HAb18G-AP-1: toxic dose 0 (TD0): >1000 ± 0 μg/ml,",toxic dose 50 (TD50): >1000 ± 0 μg/ml
CC(C)C[C@H](NC(=O)[C@H](CCCCN)NC(=O)[C@@H](N)Cc1ccc(O)cc1)C(=O)N1CCC[C@H]1C(=O)NCC(=O)N[C@@H](Cc1c[nH]cn1)C(=O)N[C@@H](Cc1c[nH]cn1)C(=O)N[C@@H](Cc1c[nH]cn1)C(=O)N[C@@H](Cc1c[nH]cn1)C(=O)N[C@@H](Cc1ccc(O)cc1)C(=O)N[C@@H](CCCNC(=N)N)C(=O)N1CCC[C@H]1C(=O)O [HAb18G-AP-9] (H-YKLPGHHHHYRP-OH),"HAb18G-AP-9: toxic dose 0 (TD0): >1000 ± 0 μg/ml,",toxic dose 50 (TD50): >1000 ± 0 μg/ml
"N=C(N)NCCC[C@H](NC(=O)[C@H](Cc1c[nH]cn1)NC(=O)[C@H](Cc1c[nH]c2ccccc12)NC(=O)[C@H](Cc1c[nH]cn1)NC(=O)[C@H](CCCCN)NC(=O)[C@H](Cc1c[nH]cn1)NC(=O)[C@H](Cc1c[nH]cn1)NC(=O)[C@H](Cc1ccccc1)NC(=O)[C@@H]1CCCN1C(=O)[C@@H](N)Cc1ccc(O)cc1)C(=O)N1CCC[C@H]1C(=O)N[C@@H](CC(N)=O)C(=O)O [HAb18G-AP-6, Tyr Pro Phe His His Lys His Typ His Arg Pro Asn] (H-YPFHHKHWHRPN-OH)","HAb18G-AP-6: toxic dose 0 (TD0): >1000 ± 0 μg/ml,",toxic dose 50 (TD50): >1000 ± 0 μg/ml
